Measurements taken from PMC6212790.
This is one part of the list. At the low end of the ranking the order means little.

Each sequence was assayed against T1, GST-Rok (full length) (UniProt O34857) (assay: protein binding microarray). Details: Rok is a gene silencer of Bacillus subtilis; high values mean tight binding; most listed sequences are background and not binding sites; double strand, one strand shown.
T1 sequence: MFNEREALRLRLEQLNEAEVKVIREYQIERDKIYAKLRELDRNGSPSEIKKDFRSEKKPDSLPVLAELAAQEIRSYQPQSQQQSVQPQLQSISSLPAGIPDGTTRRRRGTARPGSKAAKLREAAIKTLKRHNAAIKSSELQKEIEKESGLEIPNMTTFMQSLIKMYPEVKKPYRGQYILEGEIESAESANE
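Further: rank score from −0.5 (least bound) to 0.5 (best bound).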

Row | Sequence | binding signal [E-score]
1 | CACTAGCA | -0.0567
2 | GCAGTTCA | 0.00898
3 | CATCACGG | -0.246
4 | CGATCCGC | -0.095
5 | CACAATAC | 0.0701
6 | GTTGCAAA | 0.0994
7 | ACGAGGAA | -0.201
8 | ACATGCTA | 0.365
9 | ATAGCGCG | 0.307
10 | ACCATCGC | 0.0647
11 | AGGTACCG | 0.17
12 | CCACCGCG | -0.355
13 | AGAGGTAC | 0.0913
14 | GCAAAGCA | -0.0886
15 | GCTGTGAC | -0.0172
16 | ACCGAGCG | -0.175
17 | GAGCGTTA | -0.0279
18 | ATTGCCTG | -0.0581
19 | ACATATGA | 0.069
20 | ACTCTTGA | -0.0472
21 | CGGAAGAA | -0.18
22 | GTGTATCA | 0.129
23 | CACGACCA | -0.0267
24 | AGAGCGGA | -0.283

Row | Sequence | binding signal [E-score]
25 | AAAGCGCC | -0.185
26 | CTCCGCTA | -0.000908
27 | CGTATAAA | 0.119
28 | GCTCTCGA | -0.144
29 | AGCATTTG | -0.0884
30 | CACAATGA | 0.106
31 | GTCGCATA | -0.0549
32 | CCTAAATC | -0.1
33 | CATCTACG | 0.0251
34 | AACTATCT | 0.331
35 | CCCACACG | -0.365
36 | ACTATGCG | 0.0516
37 | AGGAATGC | -0.0829
38 | CGGTTAAC | 0.164
39 | TACACACA | 0.0485
40 | GCAAAATA | 0.184
41 | ATTACCTA | 0.382
42 | AGGCCGGC | -0.226
43 | CTACATAC | 0.269
44 | GACATTGC | -0.136
45 | ATGGTAGG | 0.243
46 | CCACGGAC | -0.154
47 | CCCTCTGC | -0.222
48 | ACCCTGAC | -0.167

Row | Sequence | binding signal [E-score]
49 | GGCAGCTA | -0.0821
50 | AGCACCAA | -0.086
51 | CTTACATA | 0.211
52 | ACTGGTAA | 0.277
53 | CCTATGAG | 0.000244
54 | ACCGCTGG | -0.0482
55 | ACTACGGA | 0.119
56 | GACGCTCC | -0.155
57 | GCCTGGCA | -0.345
58 | AACACTGT | -0.00154
59 | GTACAATA | 0.304
60 | CTGCGCCA | -0.24
61 | ATATTAAC | 0.298
62 | CTTCCGCA | -0.0431
63 | CAACGAGC | -0.148
64 | AGCGCGAA | 0.142
65 | AATCCACG | 0.0115
66 | ATAAGACA | 0.105
67 | AAGTTGGG | -0.114
68 | GGGGTTAC | -0.237
69 | CGTGGTGA | -0.00549
70 | AGGGTACT | 0.131
71 | AACTGCTA | -0.0323
72 | AAAGCTCT | -0.0882

Row | Sequence | binding signal [E-score]
73 | AAGGGCGT | -0.277
74 | AGAGATGG | -0.13
75 | AATGGTCC | 0.00517
76 | CGAATGGA | 0.112
77 | ATGTTGCC | -0.0627
78 | CCATGAGG | -0.052
79 | CGCAGCCA | -0.187
80 | GACGGGAC | -0.35
81 | ACACAATG | 0.0181
82 | AGGTGATG | -0.0761
83 | GATGTAAC | 0.071
84 | CGTGGCAA | -0.156
85 | ATTCACGA | -0.0154
86 | GTCTTCTA | 0.116
87 | AGTTTGGA | 0.18
88 | CTGTTCTA | 0.142
89 | GGGTCCTA | -0.079
90 | AGGCAGGC | -0.336
91 | ACTGACCC | -0.226
92 | AATACGGC | -0.0443
93 | ACTACTAT | 0.465
94 | GCAGCTAA | 0.0215
